# From publication PMC4336329 (PLoS ONE, 2015)
# Out of some 310,000 compounds screened, about 14,000 (4.5%) showed an effect of 50% or more. Effects have a minus sign here. This is one part of the list.
# Molecular target: human ether-à-go-go-related gene (hERG) potassium channel (human, UniProt Q12809)
# Test: primary screen, population patch clamp on CHO cells stably expressing hERG
# 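Further: peak tail current of the secondary pulse compared with the same well before compound.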
# Chain of human ether-à-go-go-related gene (hERG) potassium channel (Q12809 whole entry, looked up): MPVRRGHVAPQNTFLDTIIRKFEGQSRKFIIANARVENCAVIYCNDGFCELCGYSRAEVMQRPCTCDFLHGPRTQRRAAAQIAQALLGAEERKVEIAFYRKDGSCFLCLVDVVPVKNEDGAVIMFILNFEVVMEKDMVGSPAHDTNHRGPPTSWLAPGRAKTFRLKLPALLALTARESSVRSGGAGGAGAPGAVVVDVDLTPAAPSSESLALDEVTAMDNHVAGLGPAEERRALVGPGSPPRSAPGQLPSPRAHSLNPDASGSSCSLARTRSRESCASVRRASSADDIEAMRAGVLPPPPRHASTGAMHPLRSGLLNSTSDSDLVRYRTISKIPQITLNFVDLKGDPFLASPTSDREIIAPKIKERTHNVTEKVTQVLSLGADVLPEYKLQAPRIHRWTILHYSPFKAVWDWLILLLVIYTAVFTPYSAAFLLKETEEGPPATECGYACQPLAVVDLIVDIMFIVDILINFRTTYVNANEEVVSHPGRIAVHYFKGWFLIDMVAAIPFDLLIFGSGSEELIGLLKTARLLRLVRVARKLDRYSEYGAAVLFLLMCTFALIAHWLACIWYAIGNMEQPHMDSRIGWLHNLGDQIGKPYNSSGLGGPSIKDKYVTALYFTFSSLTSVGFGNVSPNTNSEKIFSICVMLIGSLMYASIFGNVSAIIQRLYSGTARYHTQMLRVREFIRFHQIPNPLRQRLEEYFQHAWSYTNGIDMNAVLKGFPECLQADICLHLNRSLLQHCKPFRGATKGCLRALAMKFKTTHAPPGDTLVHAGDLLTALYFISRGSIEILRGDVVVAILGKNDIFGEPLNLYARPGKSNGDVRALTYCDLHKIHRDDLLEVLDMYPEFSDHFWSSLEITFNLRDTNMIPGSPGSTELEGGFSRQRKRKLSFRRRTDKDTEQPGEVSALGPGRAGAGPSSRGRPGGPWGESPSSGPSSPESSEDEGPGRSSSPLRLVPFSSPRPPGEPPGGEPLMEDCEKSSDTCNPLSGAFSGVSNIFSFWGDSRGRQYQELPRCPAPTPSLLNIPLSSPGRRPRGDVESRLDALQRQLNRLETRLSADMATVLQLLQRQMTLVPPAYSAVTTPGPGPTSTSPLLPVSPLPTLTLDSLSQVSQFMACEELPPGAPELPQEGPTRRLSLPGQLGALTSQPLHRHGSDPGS
row,Structure (SMILES),"hERG current change (%, negative = inhibition) at 10uM [%]"
1,COc1ccccc1N1CCN(C(=O)CCc2c[nH]c3ccccc23)CC1,3.69
2,COc1ccc(S(=O)(=O)N(CC(=O)N2CCCCCC2)c2ccccc2OC)cc1,-27.2
3,O=P(COCCOCCOCCOCP(=O)(c1ccccc1)c1ccccc1)(c1ccccc1)c1ccccc1,-21.1
4,COc1ccc(C(C(=O)NC2CCCC2)N(CC2CCCO2)C(=O)Cc2cccs2)cc1OC (centres unmarked),2.61
5,CC1CCCCN1S(=O)(=O)c1cccc2nonc12 (centres unmarked),4.3
6,COCCn1c(SCC(=O)NC(=O)NCc2ccccc2)nc2ccccc2c1=O,-1.29
7,Cc1ccc(S(=O)(=O)N2CCOCC2)cc1C(=O)OCC(=O)NCc1ccccc1,-20.2
8,CCN(CC)CCNC(=O)c1ccc(NC2=NC3CS(=O)(=O)CC3S2)cc1 (centres unmarked),12.1
9,CC(C)CCNC(=O)C1CC(c2cccc([N+](=O)[O-])c2)=NO1 (centres unmarked),-19.4
10,Cc1ccc(S(=O)(=O)Nc2ncnc3sc(C)c(C)c23)cc1,-9.2
11,CSc1ccccc1C(=O)NC(C)c1ccc(-n2ccnc2)cc1 (centres unmarked),-39.7
12,COc1cc(NC(=S)N2CCN(S(=O)(=O)c3ccccc3)CC2)cc(OC)c1,6.68
13,Cc1onc(-c2ccccc2)c1C(=O)Nc1ccc(S(=O)(=O)N2CCCC2)cc1,-14.2
14,O=C(COC(=O)Cc1ccccc1)Nc1ccc(SC(F)F)cc1,5.27
15,CCCCCCNc1cc(C)oc(=O)c1C(C)=O,-34.2
16,Cc1ccc(CN2C(=O)N/C(=C\c3ccc(N4CCOCC4)cc3)C2=O)cc1,4.01
17,O=C(Nc1ccc(C(=O)NC2CCCCC2)cc1)c1cccnc1,25.4
18,Cn1c(=O)c(C(=O)COC(=O)c2cc(C(F)(F)F)nc3ccccc23)c(N)n(Cc2ccccc2)c1=O,-4.7
19,COc1ccc(C(=O)Nc2ccc(S(=O)(=O)N3CCCCC3C)cc2)c(OC)c1OC (centres unmarked),-6.46
20,Cc1cc(C)c(C)c(S(=O)(=O)NCCCn2ccnc2)c1C,3.09
21,COc1ccc(CC(=O)NCc2ccc3c(c2)cc(C)n3C)cc1OC,0.894
22,CCCCOc1ccc(C(=O)Nc2ccc3c(c2)C(=O)NC3=O)cc1,4.43
23,COc1ccc(C2Nc3ccccc3C(=O)N2Cc2ccco2)cc1CN1C(=O)c2ccccc2C1=O (centres unmarked),-20.7
